Each structure is given as a SMILES string. Screen size: about 150,000 compounds; about 540 (0.36%) showed an effect of 50% or more. The list shows a part of the results.

The assay has as its system Plasmodium falciparum. Briefly: Primary screen in NF54 nanoGlo assay, in single point, at 2uM, 72h; a lower Z score goes with more inhibition. To be noted: timepoint 72 hour. In kind it is functional, Erythrocyte.
On to `Cn1nnc2c(NC3CCCCCC3)ncnc21`, for which the “% Inhibition” value is listed as -7% and the Z score is 1.36.

Regarding `Cc1ccc(C)c([C@@H](O)Cn2nc(C(N)=O)ccc2=O)c1`, the “% Inhibition” value amounted to 6% and the Z score is -0.6.

In the case of `COc1cc2c(cc1OC)CN(C(=O)CNc1nc(C)cc(C)n1)CC2`, the “% Inhibition” value is reported as -13% and the Z score is 1.65.

In the case of `CCOC(=O)c1cc(NC(=O)N2CCC[C@H]2C2CCC2)c[nH]1`, the “% Inhibition” value is reported as 0% and the Z score is reported as -0.04.

For the molecule `C[C@H](N(C)C(=O)c1ccc(Br)o1)C(C)(C)C`, the “% Inhibition” value is reported as -13% and the Z score is on record as 2.03.

With `Cc1noc(C)c1S(=O)(=O)NC[C@H](OCCO)c1ccsc1`, the “% Inhibition” value was 4% and the Z score is -0.4.

For the molecule `Cc1nn(-c2cccc(F)c2)cc1CN[C@@H](C)c1ncn(C)n1`, the “% Inhibition” value was -17% and the Z score is reported as 2.56.

With `CC(C)(C(=O)N1C[C@H](N)C2(CCC2)C1)C(F)(F)F`, the “% Inhibition” value amounted to 2% and the Z score was -0.22.

For `CCc1nc(-c2nn(-c3ccc(Cl)cc3)c(=O)n(CC(=O)O)c2=O)no1`, the “% Inhibition” value is -8% and the Z score was found to be 0.93.

Consider `CCCc1ccc([C@H](C)N(CC(N)=O)Cc2csc(-c3ccccc3)n2)cc1`, for which the “% Inhibition” value is 8% and the Z score was -1.03.

Consider `COc1cccc(-c2nc3c([nH]2)CCN(Cc2nnc(C)o2)C3)c1`, for which the “% Inhibition” value is on record as -16% and the Z score is listed as 1.75.

In the case of `C=C(C)CC(C)C(=O)N1CC2(CCC2)C1c1cccnc1` (stereo unspecified), the “% Inhibition” value is listed as -5% and the Z score was 0.73.

In the case of `CN(C)S(=O)(=O)c1ccc(C(=O)NC[C@]2(O)CCCc3occc32)cc1`, the “% Inhibition” value is listed as 10% and the Z score was -1.24.

Regarding `CCNC(=O)NC1(CC2CC2)CCN(S(=O)(=O)c2ccc3c(c2)CCC3)CC1`, the “% Inhibition” value is on record as -9% and the Z score amounted to 1.8.

Consider `COc1ccc(Br)c(CS(N)(=O)=O)c1`, for which the “% Inhibition” value is on record as -4% and the Z score is 0.64.

For `COc1cc(CNCCc2ccncc2C)sn1`, the “% Inhibition” value is 5% and the Z score was -0.61.

Consider `COc1ccccc1CN1CCC[C@H](c2nnc(Cn3cccn3)n2C)C1`, for which the “% Inhibition” value is on record as -16% and the Z score is reported as 1.53.

As for `COc1cc(OC)c(NC(=O)Cn2c(N3CCc4ccccc4C3)nc(C)cc2=O)cc1Cl`, the “% Inhibition” value is recorded as -1% and the Z score amounted to 0.11.

On to `Cn1cncc1Cc1nc(-c2ccccc2)no1`, for which the “% Inhibition” value is on record as -5% and the Z score came out at 0.84.

For the molecule `C=CCN(C(=O)CCc1c(C)nc2c(C(N)=O)cnn2c1C)c1nc2c(s1)CCCC2`, the “% Inhibition” value came to 0% and the Z score is listed as 0.08.

In the case of `Cc1cnc2c(C(=O)N3CC(Oc4ccccc4C)C3)cnn2c1`, the “% Inhibition” value was -23% and the Z score came to 2.66.

In the case of `CCn1cc(NS(=O)(=O)c2ccc3c(c2)CCCC3)cn1`, the “% Inhibition” value was found to be 3% and the Z score is listed as -0.42.

On to `O=c1c2c([nH]c3ccccc13)OCCC2`, for which the “% Inhibition” value is recorded as 6% and the Z score was -1.21.

With `O=C([C@H]1CCCN(c2ncnc3c2nc2n3CCCCC2)C1)N1CCN(c2ncccn2)CC1`, the “% Inhibition” value is listed as -6% and the Z score is listed as 0.94.

As to `O=C(CN(C(=O)C1CCC1)C1CC1)N1CCN(c2ccc(-c3ccc(Cl)cc3Cl)nn2)CC1`, the “% Inhibition” value was found to be 5% and the Z score was -0.71.

As to `C[C@@H](c1ccncn1)N(C)Cc1noc(C2CCCC2)n1`, the “% Inhibition” value was -10% and the Z score is recorded as 1.19.

Consider `COc1ccc(S(=O)(=O)NCc2ccsc2)cn1`, for which the “% Inhibition” value is -2% and the Z score was found to be 0.24.

As to `Cc1ccccc1COC1CN(C(=O)[C@H]2CC(=O)N(CCN(C)C)C2)C1`, the “% Inhibition” value worked out at 6% and the Z score was -0.61.

As for `COc1ccc(Cl)cc1[C@@H](O)CNC(=O)c1cccc2c1OCC2`, the “% Inhibition” value was found to be 3% and the Z score is recorded as -0.26.

Turning to `CCOc1nccnc1NCc1ccncc1`, the “% Inhibition” value is -15% and the Z score turned out to be 2.12.

With `CC1CCCC(C)C1NC(=O)c1ccc2c(c1)OCO2` (stereo unspecified), the “% Inhibition” value is given as -10% and the Z score is given as 1.49.

Consider `COc1ccccc1CC1(O)CCN(C(=O)N(C)C2CCOCC2)CC1`, for which the “% Inhibition” value is on record as -1% and the Z score was determined as 0.15.

For the molecule `Cc1cc(C(=O)NCc2cncc(N3CCCC3=O)c2)n(C)n1`, the “% Inhibition” value is on record as -4% and the Z score was 0.78.

`Cc1ccncc1NS(=O)(=O)c1ccc2ccccc2c1`: the “% Inhibition” value turned out to be 7% and the Z score is -1.13.

Take `COCc1cccc(C(=O)N[C@@H]2[C@@H]3CCO[C@@H]3[C@H]2NC(C)=O)n1`: the “% Inhibition” value is recorded as -1% and the Z score stood at 0.19.

For `Cc1cccc(Oc2cnn(-c3ccc(F)cc3)c(=O)c2Nc2ccc(C(=O)NCCc3ccccn3)cc2)c1`, the “% Inhibition” value is 7% and the Z score is reported as -0.69.

Turning to `CN(c1cccc(NC(=O)CCCN(c2ccccc2)S(C)(=O)=O)c1)S(C)(=O)=O`, the “% Inhibition” value was -44% and the Z score amounted to 5.18.

Consider `CC(=O)c1nccn1CC(=O)NC(C)C`, for which the “% Inhibition” value is listed as -10% and the Z score is 1.39.

With `CC(C)(C)c1nnc([C@H]2CCN(Cc3ccncc3)C2)o1`, the “% Inhibition” value was -14% and the Z score is given as 1.77.

As to `Cc1cc(C(=O)N2CCC[C@@H]2C(N)=O)cs1`, the “% Inhibition” value is listed as -8% and the Z score was found to be 1.49.

In the case of `CC(C)c1nc(CC(=O)Nc2ccccn2)cs1`, the “% Inhibition” value is on record as -18% and the Z score stood at 1.98.

Take `CCOC(=O)CN(C)S(=O)(=O)c1ccc(Cl)cc1F`: the “% Inhibition” value is given as 3% and the Z score is given as -0.34.

As to `O=C(O)[C@@]1(CCOc2ccccc2)CCCN(c2ccc(Cl)cn2)C1`, the “% Inhibition” value is given as -14% and the Z score is 2.64.

For orientation: % Inhibition means the relative decrease from the control value, in per cent.

These data come from ChEMBL document CHEMBL4888484, “Replenishing the malaria drug discovery pipeline: Screening and hit evaluation of the MMV Hit Generation Library 1 (HGL1) against asexual blood stage Plasmodium falciparum ,using a nano luciferase reporter read-out” (2022).
